# Test results reported in the supplement of paper PMC11417369.
# This is one part of the list.
# Test system: PfSIP2 AP2 domain 1 (GST-tagged)
# Assay: gcPBM binding intensity (ln(normalized median fluorescence intensity)); higher = stronger DNA binding
# In short: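 Each value is the highest Masliner-normalised natural-log median intensity across replicate spots of either orientation of a probe. The probes were primer-extended double-stranded 36-bp intergenic genomic sequences on an Agilent 4 × 180k array, alongside negative controls, exposed for 1 h to GST-tagged P. falciparum DNA-binding domains expressed in E. coli. Bound protein was picked up with Alexa488 anti-GST antibody and scanned at 488 nm.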
row,Sequence,gcPBM binding intensity (ln)
1,AATAAAAAAATTAAAATTAAAAAATTAAAACTTAAA [CACACA_negctrl_site987],6.56
2,ATGGAAATTTTATCATGTACATATACCGTTGAATAA [XGTACX_site5420],7.03
3,TTATGCAAAAATAAATCAATATGTTGATATGTAAAT [GTGCAC_negctrl_site128],7.17
4,AACATATACTGTTTATGTACACATTGTTATATTAAT [XGTACX_site4276],7.05
5,ATATAATTTAATTTCTGTACATAAGAGAAAAAACAA [XGTACX_site4865],7.21
6,TACATTTTATGCATTTGTACACAAATAAATAAATAA [XGTACX_site2652],7.24
7,TTTTTTTTTTTTTATACACACATTAAAATAAAAAAG [CACACA_site3946],7.18
8,AAAGAAAAAAAAAAAACACACAAAAAAAATCAAAAT [CACACA_site2871],6.66
9,CTCTTCCTTAATTTTTGTACTTAAAATTTTTTTTTT [XGTACX_site1628],7.35
10,ATATCAATTTTTGGTGGTACGTAGGAAGTTTCAGAA [XGTACX_site6881],7.4
11,ACTTTAAAAAGATTCACACAAAATATATAAAAATAT [CACACA_site5334],6.89
12,AACCCCAAGCCGTACTGTACATATATTTTTATTTTA [XGTACX_site142],7.14
13,AAAAGTTGTATTTGCACACATAAAAAAAAGATATTA [CACACA_site3840],7.08
14,AAATTCAAACAAATTACACACATTTTTTTTTAATTT [CACACA_site3596],7.1
15,TCAAAGGAATTTTTATGTACATATAAACTTTATTCT [XGTACX_site3432],6.93
16,AAAAAAAAAAAAAAATGTACATATATATTTATATAT [XGTACX_site229],7.19
17,TAAAATCAATGTTCTTGTACTTAAAATGTTTGTTCT [XGTACX_site5490],6.96
18,TATTATTCTACTATTATATTCTATATTATTTATAGT [CACACA_negctrl_site499],6.9
19,ATATATCTATATAGAAATGTATATATATATATGTGT [TGCATGCA_negctrl_site349],7.32
20,AGTATAAAATTTGGTTGTACATTTTTAAAAAAATTA [XGTACX_site7519],6.81
21,AAAATTAAATTATTTACACACAATATTAAAATATTT [CACACA_site3244],6.88
22,TATAATATAAAAAAAAGTACACGAATTTTTTTTCAG [XGTACX_site6105],7.12
23,AAATAAATTTGACCAGTGCAATAACTTTGTATACCT [GTGCAC_site9446],7.64

row,Sequence,gcPBM binding intensity (ln)
1,ACAATATATTTTTGAGCATGCGCAAAAGAGAATGCA [TGCATGCA_site566],6.99
2,ATCCAAAAGAAAAATAGTACAGATATGAACAATATG [XGTACX_site6944],6.93
3,ATATTTATGTAATGTTTGATTTTTTTTTTATGTGTG [CACACA_negctrl_site1422],6.87
4,ACATATACATACATATGTACATATACATAAATATAT [XGTACX_site1285],7.27
5,CTATACAATAAAAATTGTACATACATATATGTTATA [XGTACX_site5309],7.02
6,ATAATATGTTATTAAGTGCATATTAATTATTATTAT,8.03
7,AATTTTTCTTTTTTTTGTACAGAATATATATTTTAT [XGTACX_site1419],6.91
8,AAAAAAAAAATTGAAAGTACACAAATGGGGTATTAT [XGTACX_site3960],6.79
9,TACTGTTTAAAATATACACACATAATCAAAAAAAAA [CACACA_site2510],7.07
10,TATATATTTACATATTGTACAATATAAAAATAATTA [XGTACX_site19],7.06
11,TCGTTATCCATCTTCACACATATATATAGTAATATA [CACACA_site5492],7.69
12,TATGTATAAATATTAACACACAAAAAAAAAAAAAAA [CACACA_site6938],6.94
13,AATAAGCAGAAACACACACACAAAAAAAAAAAAAAA [CACACA_site719],6.97
14,ATATAAACAAAGCAGTGCACGTAAACAAAACATATA [CACACA_negctrl_site1076],10.4
15,GTTTGATAACACCTACAAACTCTTTTTTTTTTTTTT [CACACA_negctrl_site1134],6.97
16,TACGAAAGGTAATATTGTACATTACAAAATTTTATA [XGTACX_site5512],6.86
17,AAATTTATAAATTAAAGTACATATTTCTTGAATATT [XGTACX_site859],6.81
18,TATTAAATTATATAGACACACATTATGTATATATAT [CACACA_site345],7.49
19,TATAGATACACTTTGTGTACATAAAAATTGTATTAA [XGTACX_site7137],6.76
20,CATAATATTAAATCAGTGCAAATATACAGAATAAAT [GTGCAC_site9786],7.75
21,AAATGAAGATTTAAATGTACGAGAGGGTATACAAAT [XGTACX_site5075],7.26
22,GACTTCTCCATATACACACACCAACAAATATAAAAA [CACACA_site7331],7.94
